Assay results reported in the supplement of paper PMC4166925.
± gives the standard deviation of the averaged measurements. Over roughly 33,000 sequences, “E-score (dimensionless, -0.5 to 0.5)” has its median near -0.046; the highest 2% begin near 0.36. Some of the results follow.

These sequences were tested on T1, SpTbr T-box DNA-binding domain (GST fusion) (assay: PBM E-score of 8-mer (E-score (dimensionless, -0.5 to 0.5)); Tbr is Tbrain of the sea star Patiria miniata (Pm) or the sea urchin Strongylocentrotus purpuratus (Sp); higher = stronger binding preference; most listed sequences are background and not binding sites). Settings: the construct has about 5 more residues each side.
T1 sequence: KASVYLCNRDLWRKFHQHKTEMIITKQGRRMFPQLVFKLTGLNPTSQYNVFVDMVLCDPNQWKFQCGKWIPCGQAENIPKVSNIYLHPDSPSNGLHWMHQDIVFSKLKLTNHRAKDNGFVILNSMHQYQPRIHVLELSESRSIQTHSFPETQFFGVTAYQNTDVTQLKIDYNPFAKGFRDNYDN
Summary of the method: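 GST-fused Tbr T-box DNA-binding domains (the whole T-box plus about five flanking residues) were expressed in BL21 E. coli at 20 °C and purified by glutathione affinity chromatography. Universal Agilent oligonucleotide arrays were made double-stranded by primer extension, incubated with 200 nM protein in PBS (pH 7.5), then scanned and quantified. Every ungapped 8-mer was scored from probe intensities. The Universal PBM Analysis Suite gave each word an enrichment E-score, averaged over duplicate arrays.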

Row | Sequence | PBM E-score of 8-mer
1 | AAACGGTG | 0.0251 ± 0.011
2 | TACGCCCA | -0.11 ± 0.0035
3 | CGGTATAG | -0.097 ± 0.088
4 | CATCCTTC | -0.101 ± 0.069
5 | AACAATAT | -0.0193 ± 0.039
6 | CACCGGAG | 0.0642 ± 0.062
7 | AGGGGAGC | -0.237 ± 0.052
8 | ACAAACCC | -0.179 ± 0.0032
9 | GGACGGCC | -0.153 ± 0.1
10 | CTAATTAA | -0.242 ± 0.042
11 | AGTCGCCG | -0.117 ± 0.074
12 | AAGTTGTC | 0.256 ± 0.028
13 | CAGCTCGA | 0.147 ± 0.0096
14 | GAAATCAC | 0.192 ± 0.037
15 | AAAATTCT | -0.0361 ± 0.048
16 | CTGTTCCC | -0.019 ± 0.069
17 | CGGGGATC | -0.123 ± 0.05
18 | AGTACACG | 0.00987 ± 0.041
19 | AGAAACGG | -0.189 ± 0.042
20 | GCTGATTA | -0.132 ± 0.037
21 | GACGCGTA | 0.0663 ± 0.0082
22 | GGTAACAA | 0.247 ± 0.012

Row | Sequence | PBM E-score of 8-mer
23 | CATACTAC | -0.0976 ± 0.021
24 | TACCTGCA | -0.118 ± 0.035
25 | CACTCGGA | 0.249 ± 0.012
26 | ACCCCGCT | 0.0349 ± 0.028
27 | CCAGTTGA | 0.0132 ± 0.086
28 | GAGAAAGC | 0.0719 ± 0.029
29 | GATAGATC | -0.142 ± 0.094
30 | ACTCCTGA | 0.00336 ± 0.0024
31 | AACCACGT | -0.161 ± 0.017
32 | AATCATAA | 0.0363 ± 0.0088
33 | ATGTGGTC | 0.00071 ± 0.051
34 | TAAGTGCA | -0.0231 ± 0.017
35 | CCGCTACC | 0.162 ± 0.04
36 | AGACACTA | 0.0382 ± 0.064
37 | ACCCAAAT | -0.11 ± 0.019
38 | GATAGGGA | -0.0798 ± 0.014
39 | GGATGCTA | -0.128 ± 0.03
40 | ATGTCCCA | -0.236 ± 0.1
41 | ATTCCAAG | -0.131 ± 0.023
42 | GGAGCGAC | 0.0869 ± 0.044
43 | CGTTGGGC | -0.255 ± 0.022
44 | GAACTCTA | -0.0304 ± 0.00088

Row | Sequence | PBM E-score of 8-mer
45 | AGGCTGAT | 0.00111 ± 0.036
46 | CCAAAAAA | -0.105 ± 0.04
47 | GCTCCCCC | -0.253 ± 0.042
48 | CATACGTA | -0.0534 ± 0.065
49 | GTGATCTA | -0.00772 ± 0.032
50 | ACCACATA | 0.12 ± 0.054
51 | ACGCATCG | 0.1 ± 0.02
52 | GAACGTAC | -0.164 ± 0.079
53 | ATAACTCA | -0.109 ± 0.031
54 | CTCTTTAA | -0.226 ± 0.052
55 | ACTCTTGA | -0.0835 ± 0.065
56 | GGGCATAA | -0.0846 ± 0.036
57 | TCAATTAA | -0.167 ± 0.1
58 | AGGGTAAG | -0.3979 ± 0.0024
59 | TAAACGCA | -0.0398 ± 0.064
60 | AGATGAAT | -0.1194 ± 0.0011
61 | TCCCACGA | 0.0602 ± 0.014
62 | CCGGACTA | -0.186 ± 0.041
63 | GCTAGGTA | -0.182 ± 0.013
64 | AAAAACGT | 0.00213 ± 0.02
65 | AGGCTTAC | -0.0946 ± 0.046
66 | CGGCATAC | -0.293 ± 0.055

Row | Sequence | PBM E-score of 8-mer
67 | CACACGAC | 0.2 ± 0.045
68 | AAGTTGTG | 0.311 ± 0.011
69 | AACAAATA | 0.0575 ± 0.067
70 | ATTACACG | 0.215 ± 0.035
71 | GAACTTCA | -0.0825 ± 0.021
72 | GGTGTCAA | 0.4808 ± 0.0038
73 | AGTGCCGA | 0.103 ± 0.067
74 | GAGATAGC | 0.0812 ± 0.017
75 | CAGAGTTC | -0.129 ± 0.032
76 | CCCGCTAG | -0.0374 ± 0.13
77 | GCTAAAAC | 0.127 ± 0.022
78 | CGCCTCAC | 0.291 ± 0.026
79 | CTAGCCTA | -0.0689 ± 0.022
80 | CCTGACGA | 0.0968 ± 0.077
81 | CGCCCTTC | 0.0465 ± 0.00081
82 | AGGACGGG | -0.229 ± 0.039
83 | TAGCGTAA | 0.126 ± 0.021
84 | CTCTGCGC | 0.04597 ± 0.00011
85 | AGTATTGC | -0.171 ± 0.047
86 | GGTACAAC | -0.144 ± 0.015
